Results published in paper PMC4336329 (PLoS ONE, 2015).
In all, about 310,000 compounds went through this assay and about 14,000 (4.5%) showed an effect of 50% or more. The effect is printed as a negative number. The list shows a part of the results.

What follows are compounds tested against human ether-à-go-go-related gene (hERG) potassium channel (human, UniProt Q12809) (assay: primary screen, population patch clamp on CHO cells stably expressing hERG).
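Further: peak tail current of the secondary pulse compared with the same well before compound.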

Sequence of human ether-à-go-go-related gene (hERG) potassium channel (Q12809 whole entry, looked up): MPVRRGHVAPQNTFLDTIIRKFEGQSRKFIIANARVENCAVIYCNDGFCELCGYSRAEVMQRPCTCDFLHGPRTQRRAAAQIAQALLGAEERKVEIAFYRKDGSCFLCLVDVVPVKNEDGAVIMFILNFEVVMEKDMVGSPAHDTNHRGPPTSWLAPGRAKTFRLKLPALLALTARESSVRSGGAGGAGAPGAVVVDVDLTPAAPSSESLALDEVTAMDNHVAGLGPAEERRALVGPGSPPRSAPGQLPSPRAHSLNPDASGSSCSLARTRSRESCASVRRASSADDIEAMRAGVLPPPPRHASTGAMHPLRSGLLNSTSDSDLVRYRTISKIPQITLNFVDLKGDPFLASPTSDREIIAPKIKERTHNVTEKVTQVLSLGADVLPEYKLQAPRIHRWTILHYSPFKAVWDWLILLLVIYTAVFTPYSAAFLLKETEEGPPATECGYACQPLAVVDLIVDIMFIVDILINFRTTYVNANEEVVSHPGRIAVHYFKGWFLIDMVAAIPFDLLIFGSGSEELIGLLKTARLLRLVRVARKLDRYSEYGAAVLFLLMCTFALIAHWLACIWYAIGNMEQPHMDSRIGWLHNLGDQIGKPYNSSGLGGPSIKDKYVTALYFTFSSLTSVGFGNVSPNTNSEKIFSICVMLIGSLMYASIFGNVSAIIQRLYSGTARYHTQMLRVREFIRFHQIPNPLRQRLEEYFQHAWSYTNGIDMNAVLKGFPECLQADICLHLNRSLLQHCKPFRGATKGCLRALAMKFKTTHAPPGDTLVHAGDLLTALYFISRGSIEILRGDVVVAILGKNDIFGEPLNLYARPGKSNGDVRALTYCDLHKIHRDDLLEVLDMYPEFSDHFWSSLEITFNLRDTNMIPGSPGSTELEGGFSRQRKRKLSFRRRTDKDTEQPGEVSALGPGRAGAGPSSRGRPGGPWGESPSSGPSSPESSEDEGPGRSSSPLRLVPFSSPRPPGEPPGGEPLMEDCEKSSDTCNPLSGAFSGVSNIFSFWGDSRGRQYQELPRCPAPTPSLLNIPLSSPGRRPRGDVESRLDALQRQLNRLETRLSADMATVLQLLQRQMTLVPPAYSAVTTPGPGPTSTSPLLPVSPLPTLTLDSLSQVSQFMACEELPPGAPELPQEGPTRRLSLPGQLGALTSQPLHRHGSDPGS

SMILES	hERG current change (%, negative = inhibition) at 10uM [%]
CC(=O)Nc1ccc(S(=O)(=O)NC(C)C(=O)OCC(=O)NC2CCCC2)cc1 (stereo not shown)	3.97
CC(NC(=O)COC(=O)CCc1ccc(S(=O)(=O)N2CCOCC2)cc1)C1CC2CCC1C2 (stereo not shown)	-1.16
Nc1nonc1OCCOCCOCCOc1nonc1N	25.3
CCCCn1c(N)c(N(CC(C)C)C(=O)CSCc2ccc(Cl)c(Cl)c2)c(=O)[nH]c1=O	-6.21
NC(=S)N/N=C/c1ccccc1[N+](=O)[O-]	7.25
CCOC(=O)C1=C(C)Nc2nc3ccccc3n2C1c1ccccc1 (stereo not shown)	8.77
Cc1ccc(S(=O)(=O)NCCC2=CCCCC2)cc1C(N)=O	-34.7
Cc1onc(-c2ccccc2)c1CNS(=O)(=O)c1ccccc1[N+](=O)[O-]	1.84
O=C1CC(Nc2cc(=O)[nH]c(=O)[nH]2)C(=O)N1c1ccccc1Cl (stereo not shown)	33.4
Cc1ccccc1OCC(=O)NCC(=O)OCC(=O)c1ccc([N+](=O)[O-])cc1	4.62
CC1C2(C)OC(=N)C(C#N)(C(C)O2)C1(C#N)C#N (stereo not shown)	19.8
S=C(NNC(=S)Nc1ccccc1)Nc1ccccc1	18.8
Cc1ccc(C(=O)O/N=C/c2c(C(F)(F)F)nn(C)c2Sc2ccc(Cl)cc2)cc1	4.4
CN1CCN(c2nc(-c3ccc(Cl)s3)cs2)CC1	-3.91
C[C@@H](NC(=O)c1[nH]cnc1C(=O)Nc1cccc(Cl)c1)c1ccccc1	2.01
O=C(/C=C/NNC(=O)c1ccc(Cl)cc1)c1ccccc1	30.7
Cn1c2ccccc2c(=O)c2c(=O)n(Cc3ccco3)c(COc3ccccc3)nc21	-19.7
Nc1nc(N2CCN(c3ccc(Cl)cc3)CC2)n[nH]1	4.91
CNCC(O)CN(c1ccccc1)c1ccccc1 (stereo not shown)	-39.8
CCCCNc1nc2ccccc2n1CC(=O)Nc1c(C)cccc1CC	-29.1
O=C(N/N=C/c1coc2ccc(Cl)cc2c1=O)c1ccncc1	6.28
CCOC(=O)c1cccc(NC(=O)CCn2nc(C)c(S(=O)(=O)N3CCCCC3)c2C)c1	-4.89

SMILES	hERG current change (%, negative = inhibition) at 10uM [%]
Cc1ccc(Nc2nc(N)nc(CSc3nc4ccccc4s3)n2)cc1	8.96
Clc1ccccc1OCc1nc(-c2ccccn2)no1	1.71
CCCOC1CCCN(C(=O)c2ccc(OC3CCN(Cc4ccccn4)CC3)cc2)C1 (stereo not shown)	-2.66
O=C(NC1(C(F)(F)F)C(=O)Nc2c1c(=O)[nH]c(=O)n2Cc1ccccc1)c1ccco1 (stereo not shown)	-1.81
COc1cccc(/C=C2\SC(=S)N(CCCC(=O)N3CCCCC3CCO)C2=O)c1 (stereo not shown)	1.1
CCCNS(=O)(=O)c1ccc(CCC(=O)NCc2ccc3c(c2)OCO3)cc1	-41
O=S(=O)(c1cc(Cl)ccc1Cl)N1CCNCC1	-0.903
O=S(=O)(c1ccc(Br)cc1)N1CCN=C1SCc1cccnc1	-15.4
CCOC(=O)c1[nH]c(COC(=O)CCCOc2ccccc2)c(C(=O)OCC)c1C	-1.62
N#C/C(=C\c1c(N2CCN(Cc3ccccc3)CC2)nc2ccccn2c1=O)S(=O)(=O)c1ccccc1	0.944
O=C(C1CC1)N1c2ccccc2Sc2ccccc21	7.2
CCN1CCN(CC2CC3C=CC2C3)CC1 (stereo not shown)	17.3
CC(C)c1ccc(NC(=O)C2CCCN(S(=O)(=O)c3cnc[nH]3)C2)cc1 (stereo not shown)	14.4
COc1ccccc1CN1CC(C(=O)NCCc2ccc(Cl)cc2)CC1=O (stereo not shown)	-5.32
N/C(=N\OC(=O)Cc1ccc([N+](=O)[O-])cc1)c1cccc(Br)c1	3.08
CN1CCN(c2ccc(NC(=O)COc3ccccc3Cl)cc2)CC1	-29.2
O=C(CNC(=O)c1ccc(Cl)cc1)N/N=C/C=C/c1ccccc1	5.4
C/C(=N\NC(=O)CSc1nc(C)cc(C)n1)c1ccc2c(c1)OCCO2	18.3
CC(CN1CCOCC1)OC(=O)c1ccccc1Cl.Cl (stereo not shown)	12
Cc1cccc(C)c1NC(=O)Cn1c(=O)n(CCCC(=O)NC2CCN(Cc3ccccc3)CC2)c(=O)c2ccccc21	-58.6
COc1cccc(/C(O)=C2/C(=O)C(=O)N(Cc3ccco3)C2c2ccncc2)c1 (stereo not shown)	15.2
O=C(Nc1ccc(S(=O)(=O)N2CCOCC2)cc1)c1ccc2c(c1)OCO2	-0.814

SMILES	hERG current change (%, negative = inhibition) at 10uM [%]
COc1ccc(OCc2nc3ccccc3n2C(C)C)cc1	-19
Cc1ccc(C)c(S(=O)(=O)NCCOC(=O)Nc2sc(=S)n(C)c2C)c1	-7.36
CCc1cc(C(=O)c2ccccc2OC)c(N)s1	-1.1
CCOC(=O)c1ccc(NC(=S)NCCc2ccccc2)cc1	4.14
CC(C)(C)SCCNC(=O)c1ccc(NS(C)(=O)=O)cc1	-16.6
O=C(O)CCC(=O)NNC(=O)CCCOc1ccc(Cl)cc1Cl	-15.3
COc1ccc2c(c1)CCc1cc(C(=O)O)sc1-2	-10
CCOc1ccc(N(CC(=O)NC2CCCC2)C(=O)CCC(=O)Nc2nccs2)cc1	2.94
CC1CCN(C(=O)c2ccc(NS(=O)(=O)c3cccc4cccnc34)cc2)CC1	-25.2
CO/N=C(\C(=O)N[C@@H]1C(=O)N2C(C(=O)[O-])=C(COC(C)=O)CS[C@H]12)c1csc(N)n1.[Na+]	17.4
Cc1ccccc1OCc1nc2ccccc2c(=O)n1N	1.67
CN(CC(=O)Nc1ccc(F)cc1)CC(=O)N1CCCCC1	-1.35
CCOC(=O)c1c(NC(=O)C2C3C=CC(C3)C2C(=O)O)sc2c1CCC(CC)C2 (stereo not shown)	-30.6
CCOc1ccc(NC(=O)N2CCC(C(=O)c3ccc(F)cc3)CC2)cc1	-20.8
Cc1ccc(C)c(OCCn2cc(/C=C(\C#N)C(=O)NCc3ccco3)c3ccccc32)c1	9.8
CC1CCCC(C)N1c1ccc(S(=O)(=O)N2CCOCC2)cc1Cl (stereo not shown)	11.5
Br.CCOC(=O)CN1C2=NCCN2c2ccccc21	18.1
CCc1nnc(NC(=O)c2ccc3ccccc3n2)s1	1.35
CC(C)CNS(=O)(=O)c1cc(C(=O)OCC(=O)N(C)C2CCS(=O)(=O)C2)c(Cl)cc1Cl (stereo not shown)	-13
COc1ccc(NC(=O)CN(C)CC(=O)Nc2cccc(S(=O)(=O)N(C)c3ccccc3)c2)cc1	-18.4
Cc1ccnc2nc(C(=O)N3CCN(c4ccc(F)cc4)CC3)nn12	-17.7
Cc1ccc(S(=O)(=O)NCc2ccncc2)cc1	1.24

SMILES	hERG current change (%, negative = inhibition) at 10uM [%]
CCN(C(=O)COC(=O)c1c(C)nn(-c2ccccc2)c1C)C1CCS(=O)(=O)C1 (stereo not shown)	14.8
CCC(c1nnnn1CCOC)N1CCN(Cc2ccccc2OC)CC1.Cl (stereo not shown)	-6.05
CC1Sc2ccc(C(=O)O)cc2NC1=O (stereo not shown)	16.1
Cn1cc(/C=C2/SC(=O)N(CC(=O)Nc3ccc4c(c3)OCO4)C2=O)c2ccccc21	0.46
CCOC(=O)c1cc(C)sc1NC(=O)CSc1nccn1C	-19.9
Cc1ccc(C(=O)NCC(=O)OCC(=O)Nc2ccccc2[N+](=O)[O-])cc1	-34.3
CCCCCCn1cc(C(=O)O)c(=O)c2cc(F)c(N3CCN(C(=O)OCC)CC3)cc21	10.8
COc1ccccc1OCC(=O)Nc1ccc2c(c1)n(C)c(=O)n2C	4.41
CCOc1ccc(CCNC(=O)c2c(C)noc2C)cc1OCC	3.04
COc1cc(NC(=O)Cn2ncc3c2-c2ccccc2OC3)cc(OC)c1OC	-0.453
Cc1nc2ccccc2c(=O)n1-c1cc([N+](=O)[O-])cc([N+](=O)[O-])c1	5.95
COC(=O)c1cc2ccccn2c2c(C(=O)OC)c(C(=O)OC)cc1-2	20.1
CC(C(=O)N(C)C1CCS(=O)(=O)C1)N1C(=O)/C(=C/c2ccco2)SC1=S (stereo not shown)	-16.6
CCOC(=O)COc1c(OC)cc(Cl)cc1C1NC(=O)NC(C)=C1C(C)=O (stereo not shown)	-3.27
CN1CCNC(=O)C1CC(=O)NCC1(c2ccccc2)CCCCC1 (stereo not shown)	-0.148
CCC(C)Sc1nc(O)c(Cc2ccccc2)c(=O)[nH]1 (stereo not shown)	-5.35
CCOC(=O)c1c(NC(=O)N/N=C/c2ccc(O)c(OC)c2)sc(C(C)=O)c1C	12.4
O=C(Nc1nnc(-c2ccncc2)o1)C1CCCCC1	-1.8
CCCC(=O)Nc1c(C(=O)OCC)[nH]c2ccccc12	6.02
O=C(C(c1ccccc1)c1ccccc1)N1CC[C@@]2(O)CCCC[C@H]2C1	-0.742
Cc1nc2ccccc2c2oc(C(=O)NCCN3CCN(C)CC3)cc12	12.4
COc1ccc(N2C(=O)CC(Sc3nc(C)c4c(n3)CCCC4)C2=O)cc1 (stereo not shown)	-1.4
